# Assay results reported in USRE48267E1, “Variants of C-type natriuretic peptide” (priority 2009, dated 2020).
# Read-outs that look alike come from different tables or passages of the source. Part of at least one peptide drawing is inferred or uncertain, most often the ends. Marks after values point to notes of the source that are not given here.
# Experiments:
# wild-type FVB mice [1] = experiment: efficacy of CNP variants on bone growth in wild-type mice; type: in vivo, mouse; conditions: wild-type mice
# Experimental: The in vivo effects of CNP variants on bone growth were assessed in wild-type mice. Three week old FVB wild-type male mice received daily subcutaneous (s.c.) injection of either vehicle, G-CNP37 (200 nmol/kg) or […]”) (SEQ ID NO: 36) (200 nmol/kg) for 5 weeks. Body weight was measured at least once weekly. Tail length was measured at least once weekly using digital caliper readings, and body length (naso-anal length), bone length (tibia, femur, ulna and humerus), skull length (anterior to posterior cranial segment) and lumbar vertebrae 5 (LV5) length were measured after 5 weeks of treatment using a caliper. X-rays were taken at baseline and after 5 weeks of treatment. […] In another study, various dosing regimens of Pro-Gly-CNP37 were administered for nine weeks followed by one week of recovery. Wild-type FVB mice were dosed s.c. with: • (1) vehicle daily for nine weeks, followed by one week of recovery; • (2) 20 nmol/kg Pro -Gly-CNP37 daily for one week, followed by three doses per week for eight weeks and one week of recovery; • (3) 20 nmol/kg Pro-Gly-CNP37 on alternating weeks; or • (4) 5 nmol/kg Pro-Gly-CNP37 daily for nine weeks followed by one week of recovery.
# wild-type FVB mice [2] = experiment: bone growth biomarkers in wild-type mice; type: in vivo, mouse
# NPR-B receptor = molecular target: T1, NPR-B receptor (Homo sapiens, UniProt P20594); experiment: desensitization of NPR-B receptor in normal human articular chondrocytes; type: cell-based; conditions: 1 uM; for peak cGMP stimulation: cells treated once only at 6 hours
# T1 construct: Primary normal human chondrocytes isolated from articular cartilage were cultured; host or cells: primary normal human articular chondrocytes
# T1 sequence (P20594 23-1047): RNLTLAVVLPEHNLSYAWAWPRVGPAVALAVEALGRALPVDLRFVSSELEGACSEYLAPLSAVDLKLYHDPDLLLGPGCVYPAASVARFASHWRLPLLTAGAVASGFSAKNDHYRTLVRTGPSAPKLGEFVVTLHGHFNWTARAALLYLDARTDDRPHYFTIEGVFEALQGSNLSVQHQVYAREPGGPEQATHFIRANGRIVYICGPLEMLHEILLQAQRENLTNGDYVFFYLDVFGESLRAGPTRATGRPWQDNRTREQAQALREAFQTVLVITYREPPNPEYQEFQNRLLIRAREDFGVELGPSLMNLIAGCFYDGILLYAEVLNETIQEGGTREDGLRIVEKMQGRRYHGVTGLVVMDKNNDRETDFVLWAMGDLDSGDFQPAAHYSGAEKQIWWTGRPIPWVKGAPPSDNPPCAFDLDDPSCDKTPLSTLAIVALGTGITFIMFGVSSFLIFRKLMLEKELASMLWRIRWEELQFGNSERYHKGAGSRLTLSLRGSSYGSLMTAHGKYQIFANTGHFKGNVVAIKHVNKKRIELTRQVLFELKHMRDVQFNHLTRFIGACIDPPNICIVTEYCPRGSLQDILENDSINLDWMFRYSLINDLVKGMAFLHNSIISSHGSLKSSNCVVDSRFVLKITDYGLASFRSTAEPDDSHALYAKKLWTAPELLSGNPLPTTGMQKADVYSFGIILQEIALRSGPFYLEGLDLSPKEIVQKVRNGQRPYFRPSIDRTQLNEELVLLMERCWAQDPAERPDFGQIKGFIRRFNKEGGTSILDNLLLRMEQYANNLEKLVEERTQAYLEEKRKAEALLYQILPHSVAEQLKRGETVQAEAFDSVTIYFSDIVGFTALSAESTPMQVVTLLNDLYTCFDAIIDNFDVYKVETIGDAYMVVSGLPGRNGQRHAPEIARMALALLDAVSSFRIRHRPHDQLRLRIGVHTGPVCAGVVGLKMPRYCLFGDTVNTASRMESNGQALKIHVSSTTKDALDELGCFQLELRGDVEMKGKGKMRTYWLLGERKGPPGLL
# NPR-B = molecular target: T2, NPR-B (Mus musculus, UniProt Q6VVW5); experiment: activation of NPR-B in different tissues of CD-1 mice; type: in vivo; set-up: wild-type male CD-1 mice were injected with 200 nmol/kg of Gly-CNP37; from tissue; host or cells: heart, liver, lung, kidney, ear pinna, aorta, brain of CD-1 mice
# T2 sequence (Q6VVW5 17-1047): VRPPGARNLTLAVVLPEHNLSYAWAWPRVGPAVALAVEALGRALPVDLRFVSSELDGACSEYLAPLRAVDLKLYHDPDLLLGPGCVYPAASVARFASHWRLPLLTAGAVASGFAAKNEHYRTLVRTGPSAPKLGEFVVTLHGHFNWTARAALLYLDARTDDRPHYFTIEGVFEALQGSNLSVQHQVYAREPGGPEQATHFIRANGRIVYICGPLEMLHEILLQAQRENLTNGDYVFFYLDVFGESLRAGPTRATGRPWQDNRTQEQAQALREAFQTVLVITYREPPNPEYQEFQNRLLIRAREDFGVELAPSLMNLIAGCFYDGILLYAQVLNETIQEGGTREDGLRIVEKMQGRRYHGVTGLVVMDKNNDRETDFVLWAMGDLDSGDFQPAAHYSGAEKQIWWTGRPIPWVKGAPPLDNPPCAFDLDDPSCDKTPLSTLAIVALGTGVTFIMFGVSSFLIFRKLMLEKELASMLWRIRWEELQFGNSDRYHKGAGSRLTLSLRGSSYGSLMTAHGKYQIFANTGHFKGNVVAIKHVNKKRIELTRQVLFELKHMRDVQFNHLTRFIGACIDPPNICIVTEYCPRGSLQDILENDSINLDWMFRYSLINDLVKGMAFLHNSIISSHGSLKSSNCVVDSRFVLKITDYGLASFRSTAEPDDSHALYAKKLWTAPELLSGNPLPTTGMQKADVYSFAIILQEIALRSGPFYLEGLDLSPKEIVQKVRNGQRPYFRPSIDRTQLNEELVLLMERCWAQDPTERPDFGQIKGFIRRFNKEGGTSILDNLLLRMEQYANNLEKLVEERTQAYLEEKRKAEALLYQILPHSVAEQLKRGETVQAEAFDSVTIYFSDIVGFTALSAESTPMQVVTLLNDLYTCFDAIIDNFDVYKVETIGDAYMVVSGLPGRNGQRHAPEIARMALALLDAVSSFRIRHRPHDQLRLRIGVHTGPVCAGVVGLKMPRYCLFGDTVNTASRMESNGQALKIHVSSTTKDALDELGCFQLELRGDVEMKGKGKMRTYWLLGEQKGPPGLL
# [3] = 200 nmol/kg s.c. daily, 5 weeks
# [4] = 200 nmol/kg s.c. once daily for 5 weeks
# [5] = 20 nmol/kg s.c. once daily for 36 days
# [6] = 70 nmol/kg s.c. once daily for 36 days
# [7] = CD-1 mice, one s.c. injection 200 nmol/kg
compound,measurement,setting,value
CC[C@H](C)[C@@H]1NC(=O)[C@H](CCCNC(=N)N)NC(=O)[C@H](CC(=O)O)NC(=O)[C@H](CC(C)C)NC(=O)[C@H](CCCCN)NC(=O)[C@H](CC(C)C)NC(=O)CNC(=O)[C@H](Cc2ccccc2)NC(=O)[C@@H](NC(=O)CNC(=O)[C@H](CCCCN)NC(=O)[C@H](CO)NC(=O)[C@H](CC(C)C)NC(=O)CNC(=O)[C@H](CCCCN)NC(=O)[C@H](CCCCN)NC(=O)[C@H](CC(N)=O)NC(=O)[C@H](C)NC(=O)CNC(=O)[C@H](CCCCN)NC(=O)[C@H](Cc2ccc(O)cc2)NC(=O)[C@H](CCCCN)NC(=O)[C@H](CCCNC(=N)N)NC(=O)[C@H](C)NC(=O)[C@H](CC(N)=O)NC(=O)[C@@H]2CCCN2C(=O)[C@H](Cc2c[nH]cn2)NC(=O)[C@H](CCC(=O)O)NC(=O)[C@H](CCC(N)=O)NC(=O)CN)CSSC[C@@H](C(=O)O)NC(=O)CNC(=O)[C@H](CC(C)C)NC(=O)CNC(=O)[C@H](CO)NC(=O)[C@H](CCSC)NC(=O)[C@H](CO)NC(=O)CNC1=O [Analog DB],body weight,wild-type FVB mice [1]; [3],significant body weight gain
same,tail length (in words),wild-type FVB mice [1]; [3],significantly increased tail length
same,"Anterior to Posterior (Skull) length, relative to vehicle = 100%",wild-type FVB mice [1]; [4],104%*
same,"Femur length, relative to vehicle = 100%",wild-type FVB mice [1]; [4],109%**
same,"Humerus length, relative to vehicle = 100%",wild-type FVB mice [1]; [4],104%**
same,"LV5 length, relative to vehicle = 100%",wild-type FVB mice [1]; [4],108%*
same,"Naso-Anal (body) length, relative to vehicle = 100%",wild-type FVB mice [1]; [4],114%**
same,"Tail length, relative to vehicle = 100%",wild-type FVB mice [1]; [4],119%**
same,"Tibia length, relative to vehicle = 100%",wild-type FVB mice [1]; [4],105%**
same,"Ulna length, relative to vehicle = 100%",wild-type FVB mice [1]; [4],101%
same,level of fragments of cleaved collagen type II compared to vehicle,wild-type FVB mice [2]; 200 nmol/kg s.c. daily for 5 weeks,significantly increased (p<0.05)
same,level of cGMP in plasma compared to vehicle,"wild-type FVB mice [2]; 200 nmol/kg s.c. daily, 15 min post-dose Day 36",significantly increased (p<0.05)
same,peak cGMP stimulation,NPR-B receptor; acute experiment,> 0.1 pmol/well
same,cGMP response,"NPR-B receptor; acute, treated twice: time 0 and 15 minutes",0.1 pmol/well
same,cGMP response,"NPR-B receptor; acute, treated twice: time 0 and 30 min, 60 min, 2, 3, and 4 hours",approximately 0.5 pmol/well
same,peak cGMP stimulation,NPR-B receptor; chronic experiment,0.2 pmol/well
same,cGMP response,"NPR-B receptor; chronic, treated twice: time 0 and 2, 4 or 6 hours",< 0.5 pmol/well
same,cGMP response,"NPR-B receptor; chronic, treated twice: time 0 and 15 minutes",approximately 0.16 pmol/well
same,cGMP response,"NPR-B receptor; chronic, treated twice: time 0 and 30 min, 60 min, or 2 hours",approximately 0.6 pmol/well
same,% of Total Alk Phos (bone specific),wild type mice; 20 nmol/kg,35.2%
same,Bone-specific AP IU/L,wild type mice; 20 nmol/kg,47.9 IU/L
same,Total AP IU/L,wild type mice; 20 nmol/kg,135.9 IU/L
same,"plasma cGMP levels 15 minutes after the last injection, day 36",wild type mice; [5],approximately 300 pmol
same,serum alkaline phosphatase (AP) levels,wild type mice; [5],approximately 130 IU/L
same,serum levels of cleaved collagen type II,wild type mice; [5],approximately 9 pg/ml
same,% of Total Alk Phos (bone specific),wild type mice; 70 nmol/kg,38.2%
same,Bone-specific AP IU/L,wild type mice; 70 nmol/kg,63.5 IU/L
same,Total AP IU/L,wild type mice; 70 nmol/kg,166.3 IU/L
same,"plasma cGMP levels 15 minutes after the last injection, day 36",wild type mice; [6],approximately 500 pmol
same,serum alkaline phosphatase (AP) levels,wild type mice; [6],approximately 160 IU/L
same,serum levels of cleaved collagen type II,wild type mice; [6],approximately 8 pg/ml
same,"cGMP secretion in liver, heart, lung and brain relative to vehicle control",NPR-B; [7],did not exhibit appreciable cGMP secretion
same,"secretion of cGMP in distal femurs, femoral cortices, ear pinna and kidney",NPR-B; [7],detectable
same,time of maximal cGMP responses after treatment,"NPR-B; distal femurs, femoral cortices, ear pinna, kidney",15 min
